Measured values as given in PMC9911399, “Two distinct binding modes provide the RNA-binding protein RbFox with extraordinary sequence specificity”.
Residue numbers refer to the chain shown, from its start. This is one part of the list.

T1: RBFOX1 RRM (Homo sapiens, UniProt Q9NWB1 109-208)
T1 sequence: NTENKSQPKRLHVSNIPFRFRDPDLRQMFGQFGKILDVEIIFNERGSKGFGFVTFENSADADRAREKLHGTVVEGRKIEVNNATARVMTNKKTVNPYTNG

B1: GAGGUCA (DNA:RNA)
RNA: GGGAGACCGGAAUUCAGAUUGUCCGAGGUCAUUAAAUCCCGUCGUAGCCACCA
DNA 1: CAATCTGAATTCCGGTCTCCC
DNA 2: TGGTGGCTACGACGGGATT
B2: UAUAAAU (DNA:RNA)
RNA: B1 RNA with G25U, G27U, G28A, U29A, C30A, A31U
DNA 1: CAATCTGAATTCCGGTCTCCC
DNA 2: TGGTGGCTACGACGGGATT
B3: GUCCUGA (DNA:RNA)
RNA: B1 RNA with A26U, G27C, G28C, C30G
DNA 1: CAATCTGAATTCCGGTCTCCC
DNA 2: TGGTGGCTACGACGGGATT
B4: UACGCUU (DNA:RNA)
RNA: B1 RNA with G25U, G27C, U29C, C30U, A31U
DNA 1: CAATCTGAATTCCGGTCTCCC
DNA 2: TGGTGGCTACGACGGGATT
B5: UUUUGGU (DNA:RNA)
RNA: GGGAGACCGGAAUUCAGAUUGUCCUUUUGGUUUAAAUCCCGUCGUAGCCACCA
DNA 1: CAATCTGAATTCCGGTCTCCC
DNA 2: TGGTGGCTACGACGGGATT
B6: AUCCCAC (DNA:RNA)
RNA: B5 RNA with U25A, U27C, U28C, G29C, G30A, U31C
DNA 1: CAATCTGAATTCCGGTCTCCC
DNA 2: TGGTGGCTACGACGGGATT
B7: AAUGAAC (DNA:RNA)
RNA: B1 RNA with G25A, G27U, U29A, C30A, A31C
DNA 1: CAATCTGAATTCCGGTCTCCC
DNA 2: TGGTGGCTACGACGGGATT
B8: GCCGGGC (DNA:RNA)
RNA: B1 RNA with A26C, G27C, U29G, C30G, A31C
DNA 1: CAATCTGAATTCCGGTCTCCC
DNA 2: TGGTGGCTACGACGGGATT
B9: CCGGGGC (DNA:RNA)
RNA: B1 RNA with G25C, A26C, U29G, C30G, A31C
DNA 1: CAATCTGAATTCCGGTCTCCC
DNA 2: TGGTGGCTACGACGGGATT
B10: UGUGAUC (DNA:RNA)
RNA: B5 RNA with U26G, U28G, G29A, G30U, U31C
DNA 1: CAATCTGAATTCCGGTCTCCC
DNA 2: TGGTGGCTACGACGGGATT
B11: AAUGGCG (DNA:RNA)
RNA: B1 RNA with G25A, G27U, U29G, A31G
DNA 1: CAATCTGAATTCCGGTCTCCC
DNA 2: TGGTGGCTACGACGGGATT
B12: GAAAUGC (DNA:RNA)
RNA: B1 RNA with G27A, G28A, C30G, A31C
DNA 1: CAATCTGAATTCCGGTCTCCC
DNA 2: TGGTGGCTACGACGGGATT
B13: UCUACCG (DNA:RNA)
RNA: B5 RNA with U26C, U28A, G29C, G30C, U31G
DNA 1: CAATCTGAATTCCGGTCTCCC
DNA 2: TGGTGGCTACGACGGGATT
B14: GGGACGC (DNA:RNA)
RNA: B1 RNA with A26G, G28A, U29C, C30G, A31C
DNA 1: CAATCTGAATTCCGGTCTCCC
DNA 2: TGGTGGCTACGACGGGATT
B15: GUAUAUU (DNA:RNA)
RNA: B5 RNA with U25G, U27A, G29A, G30U
DNA 1: CAATCTGAATTCCGGTCTCCC
DNA 2: TGGTGGCTACGACGGGATT
B16: CGCUGGG (DNA:RNA)
RNA: B5 RNA with U25C, U26G, U27C, U31G
DNA 1: CAATCTGAATTCCGGTCTCCC
DNA 2: TGGTGGCTACGACGGGATT
B17: UCCAAUC (DNA:RNA)
RNA: B5 RNA with U26C, U27C, U28A, G29A, G30U, U31C
DNA 1: CAATCTGAATTCCGGTCTCCC
DNA 2: TGGTGGCTACGACGGGATT
B18: CCUACUC (DNA:RNA)
RNA: B5 RNA with U25C, U26C, U28A, G29C, G30U, U31C
DNA 1: CAATCTGAATTCCGGTCTCCC
DNA 2: TGGTGGCTACGACGGGATT
B19: GCUAAAA (DNA:RNA)
RNA: B1 RNA with A26C, G27U, G28A, U29A, C30A
DNA 1: CAATCTGAATTCCGGTCTCCC
DNA 2: TGGTGGCTACGACGGGATT
B20: CGUGCGU (DNA:RNA)
RNA: B5 RNA with U25C, U26G, U28G, G29C
DNA 1: CAATCTGAATTCCGGTCTCCC
DNA 2: TGGTGGCTACGACGGGATT

What follows are binders tested against T1, RBFOX1 RRM (assay: EMSA; HiTS-Eq, 1 nM pool, 10 min; buffer printed only for the single-RNA assays: 10 mM Tris pH 7.5, 150 mM NaCl, 3.4 mM EDTA, 0.001% NP-40, 30 C). Conditions: tags: His6 N-terminal (pET28a); label: 5' 32P.
Procedure, shortened: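 Purified wild-type or mutant RbFox RRM at increasing concentrations was equilibrated with 1 nM of 5′-radiolabelled RNA carrying 7 randomized nucleotides for 10 min in 50 µL. Unbound RNA was separated by 8% native PAGE and sequenced. Relative association constants came from read-count changes of each RNA species compared with the control reaction, normalised to the cognate motif.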
In the case of B1, the binding signal is reported as 0.0153 KA relative to UGCAUGU. In the case of B2, the binding signal is reported as 0.00511 KA relative to UGCAUGU. With B3 the binding signal was 0.0213 KA relative to UGCAUGU. In the case of B4, the binding signal is reported as 0.00861 KA relative to UGCAUGU. B5 was tested, and the binding signal was 0.0172 KA relative to UGCAUGU. With B6 the binding signal was 0.00181 KA relative to UGCAUGU. For B7, the binding signal was 0.00481 KA relative to UGCAUGU. B8 was tested, and the binding signal was 0.0282 KA relative to UGCAUGU. With B9 the binding signal was 0.0147 KA relative to UGCAUGU. In the case of B10, the binding signal is reported as 0.0227 KA relative to UGCAUGU. For B11, the binding signal was 0.0138 KA relative to UGCAUGU. With B12 the binding signal was 0.0136 KA relative to UGCAUGU. With B13 the binding signal was 0.00317 KA relative to UGCAUGU. With B14 the binding signal was 0.0262 KA relative to UGCAUGU. For B15, the binding signal was 0.00511 KA relative to UGCAUGU. With B16 the binding signal was 0.00732 KA relative to UGCAUGU. In the case of B17, the binding signal is reported as 0.00543 KA relative to UGCAUGU. With B18 the binding signal was 0.00173 KA relative to UGCAUGU. With B19 the binding signal was 0.00324 KA relative to UGCAUGU. B20 was tested, and the binding signal was 0.0143 KA relative to UGCAUGU.
